# The list shows a part of the results.
# B1: PX14343H-pdi-506-26-506 (Parabacteroides distasonis) (protein)
# chain: QPTGTMTTDSKLTSKESALALTNSAYLKNTVFNKMTPGWGCNTILLLEYMTGKATSENSQSNYKDFQDLLVSDRSLYIEDWWQDCYAGIANCNLALQKLGEFENLDASLVNGYMAEVKFMRALYYFYLVRIFGDVPKITTVQSELGELQVSRAPVKEIYDEIIIPDLLEAEQSDLAFSDHTGRVSMGAVKALLADVYLTYAGYPLQGGKSYYAESAKRSLEVIKSNEYTLFTDYESLRLPSQNNKGEFIYQVQFSLNKRHNESVRIFLPSRSGISAYDLEYGSLIPTKEFVESFEKGDKRTEEKQYFFTNYKGHPSKFSPGAAELEFMDLNGYYIYKFFDQVAVDNTAKSDLNWSVYRYTDVLLMYAEAQVNADGTPNQQSIDIVNQIRGRAGLAPFKQTNASAFLEEVWDQRYFDLCYENKMWFDMLRTRKIRDDKSGEYVDFIGYKTNWGKVYTETQLLFPIPLSERQANPNLTQNQGY
# How the values were obtained:
# Test in all cases: glycan array binding signal (z-score within array); higher = stronger binding
# Conditions in all cases: glycan notation: IUPAC condensed, linker removed
# [1] = target: Gal(b1-4)GlcNAc(b1-2)[Gal(b1-4)GlcNAc(b1-6)]Man(a1-6)[GlcNAc(b1-4)][Gal(b1-4)GlcNAc(b1-2)Man(a1-3)]Man(b1-4)GlcNAc(b1-4)GlcNAc
# Summary of the method: (§1)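 Columns mapping to the same glycan were averaged after glycan names were converted to IUPAC-condensed notation. The data come from 3228 arrays in the Consortium for Functional Glycomics database, limited to those with an available protein sequence. Binding is reported as a within-array Z-score averaged across arrays of one protein sequence and across linkers.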
# [2] = target: Gal(b1-4)GlcNAc(b1-2)[Gal(b1-4)GlcNAc(b1-6)]Man(a1-6)[GlcNAc(b1-4)][Gal(b1-4)GlcNAc(b1-2)[Gal(b1-4)GlcNAc(b1-4)]Man(a1-3)]Man(b1-4)GlcNAc(b1-4)[Fuc(a1-6)]GlcNAc
# Summary of the method: as §1
# [3] = target: Gal(b1-4)GlcNAc(b1-3)Gal(b1-3)GalNAc
# Summary of the method: as §1
# [4] = target: Gal(b1-4)GlcNAc(b1-3)Gal(b1-3)GlcNAc
# Summary of the method: as §1
# [5] = target: Gal(b1-4)GlcNAc(b1-3)Gal(b1-4)Glc
# Summary of the method: as §1
# [6] = target: Gal(b1-4)GlcNAc(b1-3)Gal(b1-4)GlcNAc
# Summary of the method: as §1
# [7] = target: Gal(b1-4)GlcNAc(b1-3)Gal(b1-4)GlcNAc(b1-2)Man(a1-3)[Gal(b1-4)GlcNAc(b1-3)Gal(b1-4)GlcNAc(b1-2)Man(a1-6)]Man(b1-4)GlcNAc(b1-4)GlcNAc
# Summary of the method: as §1
# [8] = target: Gal(b1-4)GlcNAc(b1-3)Gal(b1-4)GlcNAc(b1-2)Man(a1-3)[Gal(b1-4)GlcNAc(b1-3)Gal(b1-4)GlcNAc(b1-2)Man(a1-6)]Man(b1-4)GlcNAc(b1-4)[Fuc(a1-6)]GlcNAc
# Summary of the method: as §1
# [9] = target: Gal(b1-4)GlcNAc(b1-3)Gal(b1-4)GlcNAc(b1-2)[Gal(b1-4)GlcNAc(b1-3)Gal(b1-4)GlcNAc(b1-6)]Man(a1-6)[Gal(b1-4)GlcNAc(b1-3)Gal(b1-4)GlcNAc(b1-2)Man(a1-3)]Man(b1-4)GlcNAc(b1-4)GlcNAc
# Summary of the method: as §1
# [10] = target: Gal(b1-4)GlcNAc(b1-3)Gal(b1-4)GlcNAc(b1-2)[Gal(b1-4)GlcNAc(b1-3)Gal(b1-4)GlcNAc(b1-6)]Man(a1-6)[Gal(b1-4)GlcNAc(b1-3)Gal(b1-4)GlcNAc(b1-2)Man(a1-3)]Man(b1-4)GlcNAc(b1-4)[Fuc(a1-6)]GlcNAc
# Summary of the method: as §1
# [11] = target: Gal(b1-4)GlcNAc(b1-3)Gal(b1-4)GlcNAc(b1-3)Gal(b1-4)GlcNAc
# Summary of the method: as §1
# [12] = target: Gal(b1-4)GlcNAc(b1-3)Gal(b1-4)GlcNAc(b1-3)Gal(b1-4)GlcNAc(b1-2)Man(a1-3)[Gal(b1-4)GlcNAc(b1-3)Gal(b1-4)GlcNAc(b1-3)Gal(b1-4)GlcNAc(b1-2)Man(a1-6)]Man(b1-4)GlcNAc(b1-4)GlcNAc
# Summary of the method: as §1
# [13] = target: Gal(b1-4)GlcNAc(b1-3)Gal(b1-4)GlcNAc(b1-3)Gal(b1-4)GlcNAc(b1-2)Man(a1-3)[Gal(b1-4)GlcNAc(b1-3)Gal(b1-4)GlcNAc(b1-3)Gal(b1-4)GlcNAc(b1-2)Man(a1-6)]Man(b1-4)GlcNAc(b1-4)[Fuc(a1-6)]GlcNAc
# Summary of the method: as §1
# [14] = target: Gal(b1-4)GlcNAc(b1-3)Gal(b1-4)GlcNAc(b1-3)Gal(b1-4)GlcNAc(b1-2)[Gal(b1-4)GlcNAc(b1-3)Gal(b1-4)GlcNAc(b1-3)Gal(b1-4)GlcNAc(b1-6)]Man(a1-6)[Gal(b1-4)GlcNAc(b1-3)Gal(b1-4)GlcNAc(b1-3)Gal(b1-4)GlcNAc(b1-2)Man(a1-3)]Man(b1-4)GlcNAc(b1-4)[Fuc(a1-6)]GlcNAc
# Summary of the method: as §1
# [15] = target: Gal(b1-4)GlcNAc(b1-3)Gal(b1-4)GlcNAc(b1-3)Gal(b1-4)GlcNAc(b1-3)Gal(b1-4)GlcNAc(b1-2)Man(a1-3)[Gal(b1-4)GlcNAc(b1-3)Gal(b1-4)GlcNAc(b1-3)Gal(b1-4)GlcNAc(b1-3)Gal(b1-4)GlcNAc(b1-2)Man(a1-6)]Man(b1-4)GlcNAc(b1-4)GlcNAc
# Summary of the method: as §1
# [16] = target: Gal(b1-4)GlcNAc(b1-3)Gal(b1-4)GlcNAc(b1-3)Gal(b1-4)GlcNAc(b1-3)Gal(b1-4)GlcNAc(b1-2)Man(a1-3)[Gal(b1-4)GlcNAc(b1-3)Gal(b1-4)GlcNAc(b1-3)Gal(b1-4)GlcNAc(b1-3)Gal(b1-4)GlcNAc(b1-2)Man(a1-6)]Man(b1-4)GlcNAc(b1-4)[Fuc(a1-6)]GlcNAc
# Summary of the method: as §1
# [17] = target: Gal(b1-4)GlcNAc(b1-3)Gal(b1-4)GlcNAc(b1-3)Gal(b1-4)GlcNAc(b1-3)Gal(b1-4)GlcNAc(b1-2)[Gal(b1-4)GlcNAc(b1-3)Gal(b1-4)GlcNAc(b1-3)Gal(b1-4)GlcNAc(b1-3)Gal(b1-4)GlcNAc(b1-6)]Man(a1-6)[Gal(b1-4)GlcNAc(b1-3)Gal(b1-4)GlcNAc(b1-3)Gal(b1-4)GlcNAc(b1-3)Gal(b1-4)GlcNAc(b1-2)Man(a1-3)]Man(b1-4)GlcNAc(b1-4)[Fuc(a1-6)]GlcNAc
# Summary of the method: as §1
# [18] = target: Gal(b1-4)GlcNAc(b1-3)Gal(b1-4)GlcNAc(b1-3)Gal(b1-4)GlcNAc(b1-3)Gal(b1-4)GlcNAc(b1-3)Gal(b1-4)GlcNAc(b1-2)Man(a1-3)[Gal(b1-4)GlcNAc(b1-3)Gal(b1-4)GlcNAc(b1-3)Gal(b1-4)GlcNAc(b1-3)Gal(b1-4)GlcNAc(b1-3)Gal(b1-4)GlcNAc(b1-2)Man(a1-6)]Man(b1-4)GlcNAc(b1-4)GlcNAc
# Summary of the method: as §1
# [19] = target: Gal(b1-4)GlcNAc(b1-3)Gal(b1-4)GlcNAc(b1-3)Gal(b1-4)GlcNAc(b1-3)Gal(b1-4)GlcNAc(b1-3)Gal(b1-4)GlcNAc(b1-2)Man(a1-3)[Gal(b1-4)GlcNAc(b1-3)Gal(b1-4)GlcNAc(b1-3)Gal(b1-4)GlcNAc(b1-3)Gal(b1-4)GlcNAc(b1-3)Gal(b1-4)GlcNAc(b1-2)Man(a1-6)]Man(b1-4)GlcNAc(b1-4)[Fuc(a1-6)]GlcNAc
# Summary of the method: as §1
# [20] = target: Gal(b1-4)GlcNAc(b1-3)Gal(b1-4)GlcNAc(b1-3)Gal(b1-4)GlcNAc(b1-3)Gal(b1-4)GlcNAc(b1-3)Gal(b1-4)GlcNAc(b1-2)[Gal(b1-4)GlcNAc(b1-3)Gal(b1-4)GlcNAc(b1-3)Gal(b1-4)GlcNAc(b1-3)Gal(b1-4)GlcNAc(b1-3)Gal(b1-4)GlcNAc(b1-6)]Man(a1-6)[Gal(b1-4)GlcNAc(b1-3)Gal(b1-4)GlcNAc(b1-3)Gal(b1-4)GlcNAc(b1-3)Gal(b1-4)GlcNAc(b1-3)Gal(b1-4)GlcNAc(b1-2)Man(a1-3)]Man(b1-4)GlcNAc(b1-4)[Fuc(a1-6)]GlcNAc
# Summary of the method: as §1
# [21] = target: Gal(b1-4)GlcNAc(b1-3)Gal(b1-4)GlcNAc(b1-3)Gal(b1-4)GlcNAc(b1-3)Gal(b1-4)GlcNAc(b1-3)Gal(b1-4)GlcNAc(b1-3)Gal(b1-4)GlcNAc(b1-2)Man(a1-3)[Gal(b1-4)GlcNAc(b1-3)Gal(b1-4)GlcNAc(b1-3)Gal(b1-4)GlcNAc(b1-3)Gal(b1-4)GlcNAc(b1-3)Gal(b1-4)GlcNAc(b1-3)Gal(b1-4)GlcNAc(b1-2)Man(a1-6)]Man(b1-4)GlcNAc(b1-4)GlcNAc
# Summary of the method: as §1
# [22] = target: Gal(b1-4)GlcNAc(b1-3)Gal(b1-4)GlcNAc(b1-3)GalNAc
# Summary of the method: as §1
# [23] = target: Gal(b1-4)GlcNAc(b1-3)Gal(b1-4)GlcNAc(b1-3)[Gal(b1-4)GlcNAc(b1-3)Gal(b1-4)GlcNAc(b1-6)]GalNAc
# Summary of the method: as §1
# [24] = target: Gal(b1-4)GlcNAc(b1-3)Gal(b1-4)GlcNAc(b1-6)[Gal(b1-3)]GalNAc
# Summary of the method: as §1
# [25] = target: Gal(b1-4)GlcNAc(b1-3)Gal(b1-4)[Fuc(a1-3)]GlcNAc(b1-3)Gal(b1-4)[Fuc(a1-3)]GlcNAc
# Summary of the method: as §1
# [26] = target: Gal(b1-4)GlcNAc(b1-3)GalNAc
# Summary of the method: as §1
# [27] = target: Gal(b1-4)GlcNAc(b1-3)[Fuc(a1-3)GlcNAc(b1-6)]Gal(b1-4)Glc
# Summary of the method: as §1
# [28] = target: Gal(b1-4)GlcNAc(b1-3)[Gal(b1-4)GlcNAc(b1-6)]Gal(b1-4)GlcNAc
# Summary of the method: as §1
# [29] = target: Gal(b1-4)GlcNAc(b1-3)[GlcNAc(b1-6)]Gal(b1-4)GlcNAc
# Summary of the method: as §1
# [30] = target: Gal(b1-4)GlcNAc(b1-6)Gal(b1-4)GlcNAc
# Summary of the method: as §1
# [31] = target: Gal(b1-4)GlcNAc(b1-6)GalNAc
# Summary of the method: as §1
# [32] = target: Gal(b1-4)GlcNAc(b1-6)[Gal(b1-3)]GalNAc
# Summary of the method: as §1
# [33] = target: Gal(b1-4)GlcNAc(b1-6)[Gal(b1-4)GlcNAc(b1-3)]GalNAc
# Summary of the method: as §1
# [34] = target: Gal(b1-4)GlcNAc6P
# Summary of the method: as §1
# [35] = target: Gal(b1-6)Gal
# Summary of the method: as §1
# [36] = target: Gal3S(b1-3)GalNAc
# Summary of the method: as §1
# [37] = target: Gal3S(b1-3)GlcNAc
# Summary of the method: as §1
# [38] = target: Gal3S(b1-3)[Fuc(a1-4)]GlcNAc
# Summary of the method: as §1
binder,measurement,setting,value
B1,glycan array binding signal (z-score),[1],1.36
same,glycan array binding signal (z-score),[2],-0.104
same,glycan array binding signal (z-score),[3],-0.046
same,glycan array binding signal (z-score),[4],-0.366
same,glycan array binding signal (z-score),[5],-0.288
same,glycan array binding signal (z-score),[6],0.019
same,glycan array binding signal (z-score),[7],-0.082
same,glycan array binding signal (z-score),[8],6.92
same,glycan array binding signal (z-score),[9],1.14
same,glycan array binding signal (z-score),[10],1.4
same,glycan array binding signal (z-score),[11],-0.114
same,glycan array binding signal (z-score),[12],3.24
same,glycan array binding signal (z-score),[13],6.72
same,glycan array binding signal (z-score),[14],0.73
same,glycan array binding signal (z-score),[15],0.477
same,glycan array binding signal (z-score),[16],0.292
same,glycan array binding signal (z-score),[17],0.883
same,glycan array binding signal (z-score),[18],0.552
same,glycan array binding signal (z-score),[19],0.244
same,glycan array binding signal (z-score),[20],0.888
same,glycan array binding signal (z-score),[21],4.45
same,glycan array binding signal (z-score),[22],0.145
same,glycan array binding signal (z-score),[23],0.311
same,glycan array binding signal (z-score),[24],-0.1
same,glycan array binding signal (z-score),[25],-0.204
same,glycan array binding signal (z-score),[26],-0.441
same,glycan array binding signal (z-score),[27],0.029
same,glycan array binding signal (z-score),[28],-0.216
same,glycan array binding signal (z-score),[29],-0.347
same,glycan array binding signal (z-score),[30],-0.42
same,glycan array binding signal (z-score),[31],-0.235
same,glycan array binding signal (z-score),[32],-0.08
same,glycan array binding signal (z-score),[33],2.17
same,glycan array binding signal (z-score),[34],-0.427
same,glycan array binding signal (z-score),[35],-0.379
same,glycan array binding signal (z-score),[36],-0.491
same,glycan array binding signal (z-score),[37],-0.402
same,glycan array binding signal (z-score),[38],-0.34

# From the supplement of paper PMC8728848
